About 12,000 (3.5%) of roughly 340,000 compounds were called active. Inconclusive results, whose numbers are uncertain, are shown with a selection of clear calls. The call rests on the fitted dose curve; in most records, active means well fitted inhibition curve with a large enough effect; inconclusive means small, poorly fitted or top-dose-only effect, or another doubt; inactive means no such curve, though single readings can be large or run the other way. Potencies of inconclusive entries are left out as doubtful fits.
assay: qHTS Assay for Inhibitors of Hepatitis C Virus (HCV); settings: Huh7.5.1 HCVcc-Cre (HCVcc is cell-culture hepatitis C virus) infection, luciferase reporter, 44 h; activity change, negative = inhibition: at 41.8 µM (top of the series) unless noted
In short: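 Cells seeded at 1,000/well and cultured 4 h, then compounds added followed by HCVcc-Cre virus (~0.5 moi). After 44 h further culture, luciferase substrate was added, plates held 15 min at room temperature, and luminescence read for 15 sec.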
On the % scale 0 is the no-effect control and ±100 the full control effect; potency means the concentration at half of the fitted maximal effect; tags describe the fitted curve by direction and shape.

SMILES	Potency	activity change, negative = inhibition
CCCCNc1nc2c(S(=O)(=O)c3ccccc3)nnn2c2ccccc12	inconclusive [inhibitor, partial curve]	
CC(NC(=O)CCc1ccccc1)c1ccc2c(c1)OCO2 (stereo not given)	inconclusive [inhibitor, single point]	
CN(CCOc1ccc(Cl)cc1)C(=O)C1CCN(C(=O)c2ccc(Cl)cc2)CC1	inconclusive [inhibitor, partial curve]	
CCN1CCN(c2ccc(NC(=O)CCc3c(C)nc4c(-c5ccc(F)cc5)c(C)nn4c3C)cc2)CC1	active: 2.51 µM	
CN(Cc1cn[nH]c1-c1ccc2c(c1)OCO2)C1CCOCC1		inactive: 12.7%
O=C(Nc1ccc2nc(-c3ccco3)[nH]c2c1)c1ccco1		inactive: -16.9%
Cc1ccc(Cl)cc1N1CCN(C(=O)Cn2ncn3cccc3c2=O)CC1		inactive: -25.2%
COC(=O)c1c(C)[nH]c(C(=O)OC(C)C(=O)N2CCOCC2)c1C (stereo not given)	inconclusive [inhibitor, single point]	
CCOC(=O)N1CCC(NC(=O)C(Cc2ccccc2)NC(=O)c2ccco2)CC1 (stereo not given)	inconclusive [inhibitor, single point]	
Cc1nc2c(-c3ccc(F)cc3)c(C)nn2c(C)c1CCC(=O)NC(C)CCc1ccco1 (stereo not given)	inconclusive [inhibitor, partial curve]	
COc1ccc(N(C(=O)c2ccc(Cl)cc2)C2=CC3CCC(C2)N3C)cc1 (stereo not given)	inconclusive [inhibitor, full curve]	
CC(C)C(=O)Nc1cccc(C(=O)Nc2cc([N+](=O)[O-])ccc2F)c1	inconclusive [inhibitor, partial curve]	
O=C(Nc1ccc(Oc2ccccc2)nc1)C1CCCCN1Cc1ccc(OCCO)cc1 (stereo not given)		inactive: 13%
CSc1ccccc1OCc1cc(C(=O)N2CCN(Cc3nccn3C)CC2)no1	inconclusive [inhibitor, single point]	
Cc1cc(C(=O)N2CCN(C/C=C/c3ccccc3)CC2)no1		inactive: -5.11%
COc1ccc(NC(=O)c2cc(-c3ccccc3Cl)on2)cc1	inconclusive [inhibitor, single point]	
C/C(O)=C\c1nc2ccccc2oc1=O		inactive: -3.47%
Cc1cc(C)nc(NS(=O)(=O)c2ccc(NC(=O)c3snnc3C)cc2)n1	inconclusive [inhibitor, single point]	
Cc1cc(C)c(S(=O)(=O)N2CCCOC2CNC(=O)C(=O)NCCc2c[nH]c3ccccc23)c(C)c1 (stereo not given)	inconclusive [inhibitor, single point]	
COc1ccc(OC)c(N=CC2=C(O)CC(C)(C)CC2=O)c1		inactive: 11.2%
Cc1cccc(C(=O)NNC(=O)c2ccco2)c1O		inactive: 1.02%
CN1CCN(/N=C/c2c3ccccc3c(Cl)c3ccccc23)CC1	inconclusive [inhibitor, single point]	
Cc1ccc2nsnc2c1NC(=O)c1ccc(-c2cc(Cl)ccc2Cl)o1	inconclusive [inhibitor, partial curve]	

SMILES	Potency	activity change, negative = inhibition
COc1cc(C2SCCS2)cc(Br)c1Oc1ncccc1[N+](=O)[O-]	inconclusive [inhibitor, single point]	
Cc1cc(C)n2c(SCc3ccccc3Cl)nnc2n1	inconclusive [inhibitor, single point]	
O=C(C1=C[C@H](c2csc3ccccc23)C[C@H](OCCCCO)O1)N1CCN(Cc2ccc3c(c2)OCO3)CC1	inconclusive [inhibitor, partial curve]	
CS(=O)(=O)c1ccc([C@@H](O)[C@@H](CF)NC(=O)C(Cl)Cl)cc1	inconclusive [inhibitor, partial curve]	
COc1cccc(Nc2cc(C)nc3ccccc23)c1	inconclusive [inhibitor, single point]	
CCN1CCN(C(=S)Nc2ccc3nc(N4CCN(CC)CC4)cc(C)c3c2)CC1	active: 12.6 µM	
CSCCC(NC(=O)c1ccco1)c1nc2ccccc2[nH]1 (stereo not given)		inactive: 7.86%
c1ccc(CCNc2ncnc3scc(C4COc5ccccc5O4)c23)cc1 (stereo not given)	active: 12.6 µM	
O=C(O)COc1ccccc1/C=N/NC(=O)CSc1nc2ccccc2s1		inactive: 7.94%
COc1ccc(-c2csc(NC(=O)c3cccc(S(=O)(=O)N4CCN(C)CC4)c3)n2)cc1	inconclusive [inhibitor, partial curve, poor fit]	
CCOC(=O)CSC1=NC(=O)CS1	inconclusive [inhibitor, single point]	
CCN(CC)CC(=O)Nc1ccccc1SCC(=O)Nc1ccsc1C(=O)OC	inconclusive [inhibitor, partial curve, poor fit]	
Cn1c(=O)c(=O)n(C)c2cc(S(=O)(=O)N3CC(=O)N(CCc4ccccc4)C(=O)C3)ccc21		inactive: 10.9%
CN(C)S(=O)(=O)NC(=O)C1=C(N2CCCC2)COC1=O	inconclusive [inhibitor, full curve, poor fit]	
COc1ccc(OC)c(Cc2nnc(CCC(=O)NC3CCCCC3)o2)c1		inactive: -1.89%
Cc1ccc(NC(=O)c2ccn(C)n2)c(Br)c1	inconclusive [inhibitor, partial curve]	
CCN(CC(=O)Nc1ccc(NC(C)=O)cc1)C(=O)c1ccc(COc2ccc(C(C)(C)C)cc2)cc1	inconclusive [inhibitor, full curve]	
COc1ccc(C)cc1NC(=O)C(NCC(O)c1ccccc1)c1ccccc1 (stereo not given)		inactive: -4.75%
COc1ccc(-c2nc3ccccc3c(=O)n2CCCN2CCOCC2)cc1	inconclusive [inhibitor, partial curve]	
COc1ccc(NC(=O)COc2cc(O)c3c(c2)OC(C)(C)CC3=O)cc1	active: 2.82 µM	
CCOc1ccc2nc(SCC3CC3(Cl)Cl)[nH]c2c1 (stereo not given)	inconclusive [inhibitor, single point]	
N#CC(C(=O)Nc1ccccc1)=C1Nc2ccccc2N1	inconclusive [inhibitor, single point]	
